Assay results as given in patent US20160159919A1 (Chugai, published 2016).

Tests used:
[1] = target: T1, cynomolgus EREG (Biacore analyte) (cynomolgus monkey, UniProt O14944 63-108 (human entry), limits assumed); assay: SPR (Biacore T100); KD for monkey EREG over KD for human EREG
T1 construct: also called cynomolgus monkey EREG; cEREG
Protocol: The affinity and association rate constant of an anti-EREG antibody for an antigen were measured by the single-cycle kinetics method of surface plasmon resonance assay using Biacore™-T100 (GE Healthcare Japan). HBS-EP+ (GE Healthcare Japan) was used for the running buffer, and an amine coupling kit (GE Healthcare Japan) was used to covalently bond Protein A to the CM5 chip (carboxymethyl dextran-coated chip). Each anti-EREG antibody was prepared so that approximately 350 RU will be captured by Protein A. Human EREG or cynomolgus EREG used as the analyte was prepared at 0, 0.7, 1.4, 2.8, 5.6, and 11.2 nM using HBS-EP+. […] Then, the solution was switched to HBS-EP+, and the dissociation phase was measured for 15 minutes. […] To correct for the day-to-day differences in the measurement values, FIGS. 1 to 4 and Tables 16 and 19 show ratios based on taking the value of the control sample (cH-G1/cL-k) measured on the same day as 1.

[2] = target: T1, cynomolgus EREG (Biacore analyte); assay: SPR (Biacore T100), antibody captured on Protein A, EREG as analyte, single-cycle kinetics
Protocol: (§1) The affinity and association rate constant of an anti-EREG antibody for an antigen were measured by the single-cycle kinetics method of surface plasmon resonance assay using Biacore™-T100 (GE Healthcare Japan). HBS-EP+ (GE Healthcare Japan) was used for the running buffer, and an amine coupling kit (GE Healthcare Japan) was used to covalently bond Protein A to the CM5 chip (carboxymethyl dextran-coated chip). Each anti-EREG antibody was prepared so that approximately 350 RU will be captured by Protein A. Human EREG or cynomolgus EREG used as the analyte was prepared at 0, 0.7, 1.4, 2.8, 5.6, and 11.2 nM using HBS-EP+. Measurement was carried out by first allowing Protein A to capture the antibody solution, and then at a flow rate of 30 μL/min, successively injecting each of the 0, 0.7, 1.4, 2.8, 5.6, and 11.2 nM human EREG or cynomolgus EREG solutions for three minutes to allow reaction to take place. Then, the solution was switched to HBS-EP+, and the dissociation phase was measured for 15 minutes. After completion of the dissociation phase measurement, the sensor chip was washed with 25 mM NaOH and regenerated. The measurement at zero concentration was similarly carried out by allowing Protein A to capture the antibody solution, and performing three-minute HBS-EP+ injections successively for five times to allow reaction to take place, and then switching to HBS-EP+ to measure the dissociation phase for 15 minutes. After completion of the dissociation phase measurement, the sensor chip was washed with 25 mM NaOH and regenerated. A data analysis software exclusively for Biacore, Biacore T100 Evaluation Software Version 2.0.1, was used to perform kinetic analyses to calculate the association rate constant (kₐ), dissociation rate constant (kd), and the rate constant ratio from the obtained sensorgrams. To correct for the day-to-day differences in the measurement values, FIGS. 1 to 4 and Tables 16 and 19 show ratios based on taking the value of the control sample (cH-G1/cL-k) measured on the same day as 1.

[3] = target: T2, Human EREG (Biacore analyte) (human, UniProt O14944 63-108); assay: as above
T2 construct: also called hEREG; human epiregulin
Protocol: as §1

T1 sequence (O14944 other isoform, or with tags, fused parts or gaps limits assumed): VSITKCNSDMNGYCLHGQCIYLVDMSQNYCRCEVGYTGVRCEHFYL

| cEREG (nM)/hEREG (nM) [1] [ratio] | Kd [2] [nM] | koff [2] [s⁻¹] | kon [2] [M⁻¹ s⁻¹] | Kd [3] [nM] | koff [3] [s⁻¹] | kon [3] [M⁻¹ s⁻¹] | Binder |
| --- | --- | --- | --- | --- | --- | --- | --- |
| 5.5 | 1.2 | 0.0007 | 580000 | 0.22 | 0.00012 | 540000 | H205-G1d/L53-k (antibody, human IgG1, kappa) heavy: QDQLVQSGAEVKKPGASVKVSCKASGFNIKDTYIQWVRQAPGQGLEWMGRIDPLRRQTKYREKFEGRVTITADTSTNTAYMELSSLRSEDTAVYYCVRSGREFDYWGQGTLVTVSS[human IgG1 constant region cut from this listing] light: DIQMTQSPSSLSASVGDRVTITCRASQDIHKYIAWYQQKPGQAPRLLIQYTSTLQPGVPSRFSGSGSGTDYTFTISSLQPEDIATYYCLQYDNLRTFGGGTKVEIKRTVAAPSVFIFPPSDEQLKSGTASVVCLLNNFYPREAKVQWKVDNALQSGNSQESVTEQDSKDSTYSLSSTLTLSKADYEKHKVYACEVTHQGLSSPVTKSFNRGEC |
| 6 | 1.4 | 0.00086 | 620000 | 0.23 | 0.00011 | 450000 | H231-G1d/L53-k (antibody, human IgG1, kappa) heavy: QDQLVQSGAEVKNPGASVKVSCKASGFNIKDTYIQWVRQAPGQGLEWMGRIDPLRRQTKYREKFEGRVTITADTSTNTAYMELSSLRSEDTAVYYCVRSGREFDYWGQGTLVTVSS[human IgG1 constant region cut from this listing] light: DIQMTQSPSSLSASVGDRVTITCRASQDIHKYIAWYQQKPGQAPRLLIQYTSTLQPGVPSRFSGSGSGTDYTFTISSLQPEDIATYYCLQYDNLRTFGGGTKVEIKRTVAAPSVFIFPPSDEQLKSGTASVVCLLNNFYPREAKVQWKVDNALQSGNSQESVTEQDSKDSTYSLSSTLTLSKADYEKHKVYACEVTHQGLSSPVTKSFNRGEC |
